The values that follow come from publication PMC12136788.

The labels stand for the following.
B1: chr16:61647241:61654101:-|three_prime_utr|ENSG00000150394|control|control|control (ssRNA)
RNA: GGGAGUUCUACAGUCCGACGAUCAAAGAAACUUGACAGUGGAUUAUAAAUAAAUCACUGGAACUGAGCAUUCUGUAAUAUUCUAGGGUCACUCCCCUUAGAUACAACCAAUGUGGCUAUUUGUUUUAGAGGCAAGUUUAGCACCAACAGAGGAUUGAGCAUCA
B2: chr20:59938049:59938150:-|3pUTR|ENSG00000132825|unk|total|mutant (ssRNA)
RNA: GGGAGUUCUACAGUCCGACGAUCAAGUUUGAAACUAAGCAUUUUAAGAAGUCUUGCCUCAGUUAUUUCAGUUUUCAGGUGACCCGAGAAUUUCAGGCAACAGUGCCCUUUGCAAUUACCUUUUUGAUGAUUAAGGUGACUAUUCAACAGAGGAUUGAGCAUCA
B3: ENSG00000198589:be:win_8901|3pUTR|ENSG00000198589|bound_else_gene|NA|bound_elsewhere_windowed (ssRNA)
RNA: GGGAGUUCUACAGUCCGACGAUCUGAGAAAUAGGAUUUUCACAGUGGGGAAGUGGGUUACAAUAUUGGAAUAGGAAAAUUUGAUGCUGUAAUUUGGGUCCUGUAUUUUUCCAAACAACUGUGCUUCUUCAGCACUAAUAUUUCCAACAGAGGAUUGAGCAUCA
B4: chr6:111694403:111694505:-|CDS|ENSG00000010810|unk|total|mutant (ssRNA)
RNA: GGGAGUUCUACAGUCCGACGAUCAAUGGCUUACAUCGAGCGCAUGAAUUAUAUCCACCGAGAUCUGCGAUCAGCAAACAUUCCCGUGGGGAAUGGACUCAUAUGCAAGAUUGCUGACUUCGGAUUGGCCCGAUUGACCGAAGACAACAGAGGAUUGAGCAUCA
B5: chr19:3536616:3536717:+|3pUTR|ENSG00000105325|msi1|FALSE|unique (ssRNA)
RNA: GGGAGUUCUACAGUCCGACGAUCACCGCCGCAGGGCCAGGCGGACGGCGUGAGGUUUGUGUUGGGGCUGGUUCUGCCCAUGCUAGGGGGUGGGGGAGCUCCCAGGACAGACCAGCCUUGUUUCUCAUGUAAUGCAGUGACGCUCAACAGAGGAUUGAGCAUCA
B6: chr11:43494716:43494817:+|3pUTR|ENSG00000052841|unk|FALSE|unique (ssRNA)
RNA: GGGAGUUCUACAGUCCGACGAUCGUUACCCAUCUUGGAAUAAGUUGUGAAUGUCAGCUCCCUCUCUCUGAGGCCUCCAGACUUAGCUCCUCAGGAGGGUAAUGAGCCAAGGUUGAGUGUUUCCAUACAAUGCUUUUACCUUUGCAACAGAGGAUUGAGCAUCA
B7: chr14:44928120:44928223:-|3pUTR|ENSG00000179454|unk|total|mutant (ssRNA)
RNA: GGGAGUUCUACAGUCCGACGAUCCCGUACAGCAGGCCUCCCAGUGCUGAUGUAAAUAUUUGAGCAGUGUUCCGUACCAUUCUCCGUGCAUAUUAAUUUUUUUAUAUAUCCUUAUAAUUUCCGUUUUUUAAGAUCUUUGCUUUUCAACAGAGGAUUGAGCAUCA
B8: chr10:72012227:72012328:+|3pUTR|ENSG00000122863|msi1|total|mutant (ssRNA)
RNA: GGGAGUUCUACAGUCCGACGAUCCAAUGGAAGGAGCUUCAGCAGGAGGUCCUUCCCAGAAGGUUGAUUCUUGGCCUGGGUGGCCGAGGAGAUAUCCUGACCCUAAAGUCUUCCAGCCCCGGGUCAUCCUCUCCUAUACCCGGGCAACAGAGGAUUGAGCAUCA
B9: chr1:9729969:9730061:-|3pUTR|ENSG00000171603|msi1_unk|total|mutant (ssRNA)
RNA: GGGAGUUCUACAGUCCGACGAUCGUUUUUAUUUUUUCCAAACCCGUGCAUGUAUAAAUAAUGGCAGGAUGGGGGGUACUGUGCCGAUGAUUAACUGACUUUUUAAUAUUUUGUAAAUAAAUCGGAUUCCUUGUGUCCUUUGUGCAACAGAGGAUUGAGCAUCA
B10: chr15:34852525:34852627:-|3pUTR|ENSG00000021776|unk|FALSE|unique (ssRNA)
RNA: GGGAGUUCUACAGUCCGACGAUCCUAGCAUUUCCCAAACUUAUUAGAGCAUAAAACUUUGUUUUUGUUUUUUUUUAAUAAGAUAGGUAGCUAUUUCCUUAGAACACAGUUUGGGAAACUUUUUGUUCAUUUGUUUUAAUAAGACAACAGAGGAUUGAGCAUCA
B11: chr22:36489384:36489485:-|3pUTR|ENSG00000100350|msi1|FALSE|unique (ssRNA)
RNA: GGGAGUUCUACAGUCCGACGAUCGUGUCACUUGCCACACACUGCCUCAACCUCCCCGCCCCAUUUUCAGCAGGGUUUGGGCUUAGCUACAGAGCCCAAGAGGGUCAGCCCUGCUUAUCAUCAUAGGCCCAGCAGGCUGAUCUCCAACAGAGGAUUGAGCAUCA
B12: chr9:128108756:128108857:+|3pUTR|ENSG00000148339|msi1|FALSE|unique (ssRNA)
RNA: GGGAGUUCUACAGUCCGACGAUCAAGGCAGCAGCCCUGGCUCCUUUCCUUUGGCAGGUUGGGGAAGGGCUUGCCCCCAGCCUUAGGAUUUCAGGGUUUGACUGGGGGCGUGGAGAGAGAGGGAGGAACCUCAAUAACCUUGAACAACAGAGGAUUGAGCAUCA
B13: chr5:56893553:56893673:+|CDS|ENSG00000095015|unk|FALSE|unique (ssRNA)
RNA: GGGAGUUCUACAGUCCGACGAUCUGCUCCAUCGAUCCCUUCACAUUUGUCUCCUGGUUUACGAGAUGUGGCUCUUCGUUGUUUAGAACUUCAACCUCAGGACAGACCUCCAUCAAGAGAGCUACUGAAGCAUCCAGUCUUUCGCAACAGAGGAUUGAGCAUCA
B14: chr12:74541195:74541296:+|3pUTR|ENSG00000253719|msi1|FALSE|bound_elsewhere (ssRNA)
RNA: GGGAGUUCUACAGUCCGACGAUCUGGGGGAAGGGGGGGGUUCUUUAAAAUUUCUGUGGUUUGUGGCUUUUUCUUCCAUACAUUAGUUCCCACCAUCGCAUGCCCAGGGACCACUGCCUGGCAUUAUCGCAUGCUGGGAUCAUCCAACAGAGGAUUGAGCAUCA
B15: chr3:167478683:167478996:-|three_prime_utr|ENSG00000174776|control|control|control (ssRNA)
RNA: GGGAGUUCUACAGUCCGACGAUCCUGCCUUUUAUUUUAUUUUAUAUUUAAACUUCAGGAAGUUUUCUCUUCAUGGGAUAAUUUAGUACUGCUUUUAUCUAUCAUCUGUCAAUUUCUCUGUAUUCUUAAUAAAAUAAAUAUUGACAACAGAGGAUUGAGCAUCA
B16: ENSG00000070961:be:win_2751|CDS|ENSG00000070961|bound_else_gene|NA|bound_elsewhere_windowed (ssRNA)
RNA: GGGAGUUCUACAGUCCGACGAUCUGGUAGAAAUAAGCCUCUCAUCUCACGUACAAUGAUGAAGAAUAUUUUGGGUCAUGCAUUCUAUCAACUUGUAGUAGUCUUUACACUCUUAUUUGCUGGAGAAAAGUUUUUUGACAUUGACAACAGAGGAUUGAGCAUCA
B17: chr1:165910223:165910324:+|3pUTR|ENSG00000143179|unk|FALSE|unique (ssRNA)
RNA: GGGAGUUCUACAGUCCGACGAUCCCAGCAUUUGGCCAACUCUGUAUCUGAACUUGAGCUUUCUAUGGAACAAACAAUGGUCUUAGUUUUUUAAGAGCCUCUGGGUCUCUGAUUCCAUGGAGAGUCAGGAGUAGAAUUAGUGGACAACAGAGGAUUGAGCAUCA
B18: chr3:180614007:180614920:-|three_prime_utr|ENSG00000284862|control|control|control (ssRNA)
RNA: GGGAGUUCUACAGUCCGACGAUCUUGUAAACACAAAAACAAAAAUAUACUUUAAAAUACAAAACGACCCAACACAUUUUAUCUAGUGGAAAGUGUAAAAACUUAGUGGUAAGUGUAAAAACUGAUAGUUUUAAAAAAAAAGGACAACAGAGGAUUGAGCAUCA
B19: chr7:44624349:44624495:+|CDS|ENSG00000105953|unk|FALSE|unique (ssRNA)
RNA: GGGAGUUCUACAGUCCGACGAUCAGGCCAUUGACGGCUUCCCAGACUGUUAAGACAUUUUCACAAAACAGACCAGCAGCAGCUAGGACAUUUCAACAGAUUCGGUGCUAUUCUGCACCUGUUGCUGCUGAGCCCUUUCUCAGUCAACAGAGGAUUGAGCAUCA
B20: chr5:6668475:6668576:+|3pUTR|ENSG00000145545|unk|total|mutant (ssRNA)
RNA: GGGAGUUCUACAGUCCGACGAUCAUUUUUUCUAAUUUCAAAUUUACCUCUUUUGGCUAUGUCUUGCCAAGUGUGUAUGAGACCCGACUUUACAACUGUCUUUGAUGGCAUUUUCAGAACAAUAAAUGUCACAAUCCCUUCUAUCAACAGAGGAUUGAGCAUCA
B21: chr1:235977234:235977335:-|3pUTR|ENSG00000116962|msi1|total|mutant (ssRNA)
RNA: GGGAGUUCUACAGUCCGACGAUCGUCUAAGACCCCCAUUAUAAUAUUCAUGCGCUGCUUUUUCAUCAAAACCUACCCUGUCCCCGAGAUCUAUGGGCAUUUGGUGGAUGAUAAUGAGCAGCCCCUCCCAGACCGAAUGUCAAUCAACAGAGGAUUGAGCAUCA
B22: chr12:95514132:95514176:+|3pUTR|ENSG00000111142|msi1_unk|total|mutant (ssRNA)
RNA: GGGAGUUCUACAGUCCGACGAUCCUUUUAAAUGCUAACUGUUUUUCCCCUUCCUGUCCCGGAAAAUGCUAUAAAGCUCAAAUCCGUCCGGAAUGACUUAUACGUUUUGUUUUGAAUACCUAAGAGAUACUUUUUGGAUAUUUACAACAGAGGAUUGAGCAUCA

The other results are listed elsewhere or left out.

In the test the target is MSI1 full-length (mouse, UniProt Q61474 1-362). In words: nsRBNS (natural sequence RNA bind-n-seq); RBNS binding buffer (assumed for nsRBNS): 25 mM Tris pH 7.5, 150 mM KCl, 3 mM MgCl2, 0.01% Triton X-100, 500 ug/ml BSA, 20 U/ml SUPERase-In, 4 C; UNK is unkempt and MSI1 is Musashi-1; names of the RNAs are library labels; protein concentration not given here; high values mean tight binding.
Sequence of UniProt Q61474 (Q61474 whole entry): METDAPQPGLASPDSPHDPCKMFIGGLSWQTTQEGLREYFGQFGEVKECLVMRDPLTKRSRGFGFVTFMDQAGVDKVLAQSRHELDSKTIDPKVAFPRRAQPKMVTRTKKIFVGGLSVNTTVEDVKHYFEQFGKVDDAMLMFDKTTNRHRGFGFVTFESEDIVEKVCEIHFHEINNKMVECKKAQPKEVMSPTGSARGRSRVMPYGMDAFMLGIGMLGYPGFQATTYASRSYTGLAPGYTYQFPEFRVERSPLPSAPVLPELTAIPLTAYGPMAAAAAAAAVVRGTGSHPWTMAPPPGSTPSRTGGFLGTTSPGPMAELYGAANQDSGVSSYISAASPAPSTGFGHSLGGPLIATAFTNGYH
Regarding B1, the binding signal amounted to 1.27 enrichment R.
Consider B2, for which the binding signal is 1.44 enrichment R.
Molecule B3 gave a binding signal of 0.57 enrichment R.
As for B4, the figure is 0.197 enrichment R; as for B5, 0.565 enrichment R; as for B6, 0.47 enrichment R.
B7 came in with a binding signal of 8.16 enrichment R.
Take B8: the binding signal was 0.338 enrichment R.
As for B9, the figure is 1.2 enrichment R; as for B10, 13.5 enrichment R.
As for B11, the figure is 0.765 enrichment R.
Consider B12, for which the binding signal was 0.54 enrichment R.
Molecule B13 yielded a binding signal of 0.463 enrichment R.
B14 came in with a binding signal of 0.979 enrichment R.
The same measure for B15: 1.98 enrichment R; for B16: 0.876 enrichment R; for B17: 1.05 enrichment R.
For B18, the binding signal was 6.76 enrichment R.
B19 yielded a binding signal of 0.281 enrichment R.
Consider B20, for which the binding signal is 0.43 enrichment R.
In turn, B21 showed a binding signal of 0.973 enrichment R.
Take B22: the binding signal came out at 0.386 enrichment R.
